About 550 (1.1%) of roughly 48,000 compounds were called active. Inconclusive results (about 4%) are left out. Cut-off read from the data, not from the text of the source: active = potency below about 15 µM; inconclusive = mostly about 16 µM to 33 µM; inactive = weaker than that. This is one part of the list.
Potency is the fitted concentration of half-maximal effect.

In the assay the target is Lysosomal acid glucosylceramidase (Homo sapiens) (UniProt P04062). As to the kind of experiment: Glucocerebrosidase.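 Note: the screen sought inhibitors.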 Particulars: purified enzyme, resorufin glucoside fluorescence (screen aimed at inhibitors), 20 min. In outline: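 Normal human glucocerebrosidase (0.2 nM final) was assayed with resorufin β-D-glucopyranoside (30 uM final) in 50mM citric acid/KH2PO4, 10mM sodium taurocholate, 0.01% tween-20, pH 5.9. Compounds were titrated; fluorescence (Ex 548, Em 600) read after 20 min at RT.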
Sequence of UniProt P04062 (P04062 whole entry, looked up): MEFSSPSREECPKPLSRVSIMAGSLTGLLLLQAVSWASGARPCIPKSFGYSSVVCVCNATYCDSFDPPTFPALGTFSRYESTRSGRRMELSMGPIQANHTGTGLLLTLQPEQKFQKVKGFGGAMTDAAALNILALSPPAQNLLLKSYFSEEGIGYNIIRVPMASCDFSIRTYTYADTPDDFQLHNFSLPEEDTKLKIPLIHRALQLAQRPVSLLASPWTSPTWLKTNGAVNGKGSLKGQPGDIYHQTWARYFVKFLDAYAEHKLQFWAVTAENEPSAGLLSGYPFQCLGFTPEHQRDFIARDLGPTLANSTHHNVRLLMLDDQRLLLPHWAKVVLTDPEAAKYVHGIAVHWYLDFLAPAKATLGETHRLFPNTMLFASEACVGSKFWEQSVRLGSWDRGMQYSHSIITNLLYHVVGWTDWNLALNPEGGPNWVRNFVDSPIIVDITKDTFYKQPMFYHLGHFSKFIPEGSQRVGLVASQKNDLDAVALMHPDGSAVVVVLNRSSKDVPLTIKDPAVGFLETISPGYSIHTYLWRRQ
Take `COc1ccc(C2OC(=O)CC2C(=O)NC(C)C)cc1` (stereo unspecified): the Potency is inactive: > 76.9 µM.

In the case of `CCn1cc(C(=O)OCC(=O)Nc2ccc(S(=O)(=O)N3CCCC3)cc2)c(=O)c2ccc(C)nc21`, the Potency was inactive: > 76.9 µM.

Consider `CCOC(=O)Cn1c(=O)n(Cc2ccco2)c(=O)c2ccc(C(=O)NCCc3ccccc3)cc21`, for which the Potency was inactive: > 76.9 µM. On to `Nc1cc(N)nc(SCC(=O)NCC2CCCO2)n1` (stereo unspecified), for which the Potency was inactive: > 76.9 µM. Turning to `CCC(O)CNc1nc(SC)nc2sc3c(c12)CCN(C)C3` (stereo unspecified), the Potency was inactive: > 76.9 µM. With `CCN(CC)P(=O)(/C(Cl)=C\Nc1c(C)n(C)n(-c2ccccc2)c1=O)N(CC)CC` the figure was inactive: > 76.9 µM; with `COCCCN=C(c1ccco1)n1c(=S)nc(-c2ccco2)n(CCCOC)c1=S`, inactive: > 76.9 µM. Turning to `COc1cc(C)c(Cl)cc1S(=O)(=O)NCc1ccco1`, the Potency was inactive: > 76.9 µM. On to `COCCn1c(N2CCN(c3ccc(OC)cc3)CC2)nc2c1c(=O)n(C)c(=O)n2C`, for which the Potency was inactive: > 76.9 µM.

As for `O=C(NC1CCN(Cc2ccccc2)CC1)C1COc2ccccc2O1` (stereo unspecified), the Potency was inactive: > 76.9 µM. With `CC(=O)Nc1nonc1C(=O)N1CCC(C)CC1` the figure was inactive: > 76.9 µM. With `CCOC(=O)CCS(=O)(=O)c1nc(-c2ccccc2)cc(C(F)(F)F)n1` the figure was inactive: > 76.9 µM; with `Nc1nnnn1NCc1cccc(OCc2ccccc2)c1`, inactive: > 76.9 µM. With `NC(=O)Cn1c(S(=O)(=O)Cc2ccccc2)nc2ccccc21` the figure was inactive: > 76.9 µM; with `COc1cccc(-c2nc(=S)c3c(n2Cc2ccco2)CCCC3)c1`, inactive: > 76.9 µM; with `CC(C)C1N=C2c3ccccc3N=C(SCC#N)N2C1=O` (stereo unspecified), inactive: > 76.9 µM. As for `NC(=O)CCn1nc(-c2ccc(Cl)cc2)c2ccccc2c1=O`, the Potency is inactive: > 76.9 µM. With `CCOc1ccccc1N1CCN(S(=O)(=O)c2ccc(F)c(F)c2)CC1` the figure was inactive: > 76.9 µM; with `COc1ccc(C(C)NC(=O)C2C(=O)NC3(C)CC2c2ccccc2O3)cc1` (stereo unspecified), inactive: > 76.9 µM. Regarding `Cc1ccc(NCc2nnc(SCC(=O)Nc3ncc(C)s3)n2Cc2ccco2)c(C)c1`, the Potency was inactive: > 76.9 µM. With `CCOCC(=O)N1CCCC(C(=O)OCC)C1` (stereo unspecified) the figure was inactive: > 76.9 µM. With `COc1cc(C2=NOC(C(=O)N3CCCc4ccccc43)C2)cc(OC)c1OC` (stereo unspecified) the figure was inactive: > 76.9 µM. With `COc1ccc2oc(=O)c(C(=O)N3CCN(c4ccc(F)cc4)CC3)cc2c1` the figure was inactive: > 76.9 µM; with `CNc1nn(-c2cccc(Cl)c2)nc1N`, inactive: > 76.9 µM.

On to `Cc1ccn(CCSCC(=O)O)n1`, for which the Potency is inactive: > 76.9 µM. In the case of `CCCc1nc(NC(C)=O)c(C#N)c(-c2ccco2)c1CC`, the Potency is inactive: > 76.9 µM. With `Cc1csc(NC(=O)c2cccs2)n1` the figure was inactive: > 76.9 µM. With `COCc1nnc(NC(=O)C(C)C)s1` the figure was inactive: > 76.9 µM.

Take `Cn1c(NC(=O)c2ccco2)c(-c2ccccc2Cl)c(=O)c2ccccc21`: the Potency was inactive: > 76.9 µM. With `CCOc1ccc2nc(COC(=O)c3ccco3)c(C(C)=O)[n+]([O-])c2c1` the figure was inactive: > 76.9 µM; with `O=C1c2ccccc2C(=O)N1CCCCn1c(=O)oc2ccccc21`, inactive: > 76.9 µM; with `CCOc1cc(-c2noc(CCC(=O)Nc3cccnc3)n2)ccc1OC`, inactive: > 76.9 µM. With `CC(C)Oc1ccc(CSc2nnc3n(C)c(=O)c4c5c(sc4n23)CCCC5)cc1` the figure was inactive: > 76.9 µM; with `CCn1c(SCC(=O)Nc2cc(NC(C)=O)ccc2OC)nnc1-c1ccncc1`, inactive: > 76.9 µM; with `COCCNC(=O)c1cc(Br)ccc1Cl`, inactive: > 76.9 µM.

Take `COc1ccc(CC(NC(C)=O)C(=O)N2CCN(C(=O)Nc3ccc(Cl)cc3)CC2)cc1OC` (stereo unspecified): the Potency was inactive: > 76.9 µM.

On to `Cc1[nH]c2ccccc2c1NC(=O)CN1CCN(Cc2ccc3c(c2)OCO3)CC1`, for which the Potency is inactive: > 76.9 µM.

Regarding `N#Cc1c(NC(=O)CSc2nnc(-c3ccccc3O)n2-c2ccccc2)sc2c1CCCC2`, the Potency was active: 10 µM.

Turning to `CCOc1ccc(-c2nnc(NC(=O)c3ccc(OCC(C)C)c(OC)c3)o2)cc1`, the Potency is inactive: > 76.9 µM. As to `CCOC(=O)N1CCN(c2ncnc3c2oc2nc(C)c4c(c23)CC(C)(C)OC4)CC1`, the Potency was inactive: > 76.9 µM. With `COC(=O)c1cnn2c(C(F)(F)F)cc(-c3ccco3)nc12` the figure was inactive: > 76.9 µM; with `Cc1cccc(N(C(=O)CNC(=O)c2ccco2)C(C(=O)NC2CCCC2)c2cccnc2)c1` (stereo unspecified), inactive: > 76.9 µM; with `COc1ccccc1N1C(=O)CC(Sc2ncccc2C(=O)O)C1=O` (stereo unspecified), inactive: > 76.9 µM. With `Cc1cccc(C)c1NC(=O)C(c1ccccc1)N1CCN(C(=O)c2ccco2)CC1` (stereo unspecified) the figure was inactive: > 76.9 µM.

Consider `O=C(c1c(Cl)nc2sccn12)N(C(=O)c1c(Cl)nc2sccn12)c1ccc(Cl)cn1`, for which the Potency was inactive: > 76.9 µM. For `Cc1cccc(C)c1OCC(=O)NCc1nnc(SCC(=O)NC2CCCCC2C)n1C` (stereo unspecified), the Potency is inactive: > 76.9 µM. Regarding `CCOC(=O)NC(=O)CSc1nnc(C)s1`, the Potency was inactive: > 76.9 µM. With `Nc1csnc1C(=O)O` the figure was inactive: > 76.9 µM; with `CCCn1nnnc1NCc1cccn1C`, inactive: > 76.9 µM; with `CC1(C)Cc2ccccc2-c2nnc(SCC(=O)N3CCc4ccccc43)n21`, inactive: > 76.9 µM.

`O=C(NCc1ccccc1Cl)C1CCN(S(=O)(=O)N2CCCCCC2)CC1`: the Potency is inactive: > 76.9 µM. For `Cc1csc(NC(=O)CSc2nnc(-c3ccoc3C)n2Cc2ccco2)n1`, the Potency was inactive: > 76.9 µM. Consider `CC(C)C(=O)Nc1ccc(N2CCN(S(C)(=O)=O)CC2)cc1`, for which the Potency was inactive: > 76.9 µM. As for `COc1ccc(S(=O)(=O)Nc2cc(C)c(O)c(S(=O)(=O)c3ccccc3)c2)cc1`, the Potency was inactive: > 76.9 µM. Turning to `CN(C)C(=O)c1cc(S(=O)(=O)N(C)C)c(Cl)cc1N1CCCC1`, the Potency was inactive: > 76.9 µM. With `CCCCOC(=O)n1c(=O)oc2ccccc21` the figure was inactive: > 76.9 µM; with `CCOC(=O)COc1nc(Nc2ccccc2C)nc(N(C)C)n1`, inactive: > 76.9 µM; with `O=C(CN1C(=O)CCS(=O)(=O)c2ccccc21)NCc1ccc(F)cc1`, inactive: > 76.9 µM. With `Nc1nnc(-c2ccccc2)c(-c2ccccc2)n1` the figure was inactive: > 76.9 µM; with `Cn1c(SCc2ccc(Br)cc2)nnc1-c1cccs1`, inactive: > 76.9 µM. On to `COc1ccccc1OCCC(=O)OCC(=O)Nc1ncc(Cl)cc1Cl`, for which the Potency was inactive: > 76.9 µM. Turning to `Cc1ccc(CN2C(=O)CCC2C(=O)NC2CCCC2)cc1` (stereo unspecified), the Potency was inactive: > 76.9 µM. With `O=c1[nH]c(NCCO)nc2c1C1(CCCCC1)Cc1ccccc1-2` the figure was inactive: > 76.9 µM; with `CCC(C)NC(=O)N[C@@H](Cc1ccccc1)C(=O)O` (stereo partly specified), inactive: > 76.9 µM.

`N#Cc1cc(N)c(Nc2ccccc2)cc1C#N`: the Potency entry was “inactive”. With `O=C(CSc1nnc(Cc2cc(=O)[nH]c(=O)[nH]2)n1-c1ccccc1)NCC1CCCO1` (stereo unspecified) the figure was inactive: > 76.9 µM; with `CC(C)CCn1cnc2c1c(=O)n(C)c(=O)n2C`, inactive: > 76.9 µM; with `C/C(N)=C(/C#N)C(=O)CSc1nnc(COc2ccccc2Cl)o1`, inactive: > 76.9 µM. With `CC12CCC(C(=O)NCc3ccccn3)(OC1=O)C2(C)C` (stereo unspecified) the figure was inactive: > 76.9 µM; with `O=C(c1cc(-c2ccccc2)on1)N1CCN(Cc2ccc3c(c2)OCO3)CC1`, inactive: > 76.9 µM; with `CCOC(=O)NC(NC(=O)OCC)C(=O)c1ccccc1`, inactive: > 76.9 µM.

Take `c1ccc2c(c1)nc(Nc1ccc3c(c1)OCO3)c1nnnn12`: the Potency was inactive: > 76.9 µM. With `O=C(NCCCN1CCCC1=O)C1CCN(S(=O)(=O)N2CCOCC2)CC1` the figure was inactive: > 76.9 µM. With `O=C(COn1nnc2ccccc21)NCC1CCCCC1` the figure was inactive: > 76.9 µM; with `COc1ccc(CCN(Cc2cc3cc(C)ccc3[nH]c2=O)C(=O)N2CCCC2)cc1OC`, inactive: > 76.9 µM. With `COc1cccc(C2=NOC(C(=O)N3CCN(Cc4ccccc4)CC3)C2)c1OC` (stereo unspecified) the figure was inactive: > 76.9 µM; with `CCOCCCn1c(C)nc2c(c1=O)c1nc3ccccc3nc1n2-c1ccc(C)cc1`, inactive: > 76.9 µM; with `Brc1ccc(-c2nc(-c3ccncc3)no2)o1`, inactive: > 76.9 µM.

As for `O=C(Cc1n[nH]c(=O)c2ccccc12)NCc1ccccn1`, the Potency was inactive: > 76.9 µM. For the compound `CCN1CCN(S(=O)(=O)c2cc(OC)ccc2OC)CC1`, the Potency is inactive: > 76.9 µM. On to `Cc1cc(C)c(N2C(=NC(=O)CCCC(=O)O)SC3CS(=O)(=O)CC32)c(C)c1` (stereo unspecified), for which the Potency was inactive: > 76.9 µM. Consider `CC(=O)NC(CCS(C)(=O)=O)C(=O)Nc1ccc(F)cc1Cl` (stereo unspecified), for which the Potency is inactive: > 76.9 µM. With `Cn1c(=O)cc(SCC(=O)N2CCN(Cc3ccc4c(c3)OCO4)CC2)c2ccccc21` the figure was inactive: > 76.9 µM; with `O=c1[nH][nH]c(=O)c2cc(N3CCCC3)ccc12`, inactive: > 76.9 µM. With `O=c1cc(CN2CCN(Cc3ccccc3)CC2)c2cc(Cl)ccc2o1` the figure was inactive: > 76.9 µM; with `COc1ccc(CNc2nc(NCc3ccc(OC)cc3)n(S(C)(=O)=O)n2)cc1`, inactive: > 76.9 µM. `O=C1NCCCC1C(=O)Nc1cccc(C(F)(F)F)c1` (stereo unspecified): the Potency is inactive: > 76.9 µM.

As to `COc1cccc(N(CC(=O)N2CCN(C)CC2)S(=O)(=O)c2ccc(C)cc2)c1`, the Potency was inactive: > 76.9 µM. With `O=C(CCCn1c(=O)c2sccc2n(CC(=O)NCc2ccco2)c1=O)NCc1ccco1` the figure was inactive: > 76.9 µM. In the case of `Clc1cccc(OCCN2CCOCC2)c1`, the Potency was inactive: > 76.9 µM. With `O=C(O)c1ccc2c3c(ncnc13)-c1ccccc1C2=O` the figure was inactive: > 76.9 µM.

The values are drawn from PubChem BioAssay AID360 (National Center for Advancing Translational Sciences (NCATS), 2006).
